{"source": "PubChem BioAssay AID493208", "about": "(National Center for Advancing Translational Sciences (NCATS), 2011)", "note": "Out of some 44,000 compounds screened, about 340 (0.77%) were called active. Not shown: some 5% with an inconclusive outcome. Calls come from the whole dose curve; as a rule, active = well fitted inhibition curve with a large enough effect; inconclusive = small, poorly fitted or top-dose-only effect; inactive = flat fitted curve, though single readings scatter. The list shows a part of the results. Potency is the fitted concentration of half-maximal effect.", "data": [{"assay": "Acumen qHTS Assay for Inhibitors of the mTORC1 Signaling Pathway in MEF (Tsc2-/-, p53-/-) Cells: Sytravon; note: nearly all actives have a fitted effect of over 50% in size;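 for activity change, negative = inhibition: plate controls were DMSO for no effect and rapamycin for full effect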", "conditions": "phospho-rpS6 immunofluorescence/PI, 24 h; series mostly up to 38.3 µM; activity change, negative = inhibition: at the top concentration", "method_in_brief": "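Readout is phospho-S6 Alexa 488 signal normalized to PI per well, reported as % active cells with thresholds set from rapamycin (7.5 nM) and DMSO controls. Cells: Tsc2-/-, p53-/- MEFs, 24 hrs compound at 37 C; PI cell number serves as viability.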", "values": [{"smiles": "CCOc1ccc(CNC(=O)c2cc3oc4ccccc4c3n2C)cc1", "activity change, negative = inhibition": "inactive: 3.94%"}, {"smiles": "Cc1ccc(C)c(NC(=O)Cn2cc(C(=O)c3ccncc3)c(=O)c3cc(F)ccc32)c1", "activity change, negative = inhibition": "inactive: -3.76%"}, {"smiles": "COc1ccc(NC(=O)Cn2cnc3sc(C)c(S(=O)(=O)N4CCN(C)CC4)c3c2=O)cc1OC", "activity change, negative = inhibition": "inactive: -2.54%"}, {"smiles": "O=C(CSc1nc2c(c(=O)[nH]1)CCC2)Nc1ccccc1F", "activity change, negative = inhibition": "inactive: -9.35%"}, {"smiles": "CN(C)c1ccc(CNc2nc(-c3ccco3)nn2S(=O)(=O)c2ccc3ccccc3c2)cc1", "activity change, negative = inhibition": "inactive: 0.335%"}, {"smiles": "Cc1ccccc1OCc1ccc(-c2nc(C#N)c(NCCCN(C)C)o2)o1", "Potency": "active: 5.85 µM"}, {"smiles": "Cc1ccc(C(=O)Nc2ccc(Cl)c(-c3nc4ncccc4o3)c2)c(C)c1", "activity change, negative = inhibition": "inactive: -17.8%"}, {"smiles": "Cc1ccccc1-c1nc(CNC(=O)Nc2ccccc2)c(C)o1", "activity change, negative = inhibition": "inactive: 0.461%"}, {"smiles": "COc1cccc(-c2nc(-c3ccc(-c4ccccc4)nc3OC)no2)c1", "activity change, negative = inhibition": "inactive: -2.5%"}, {"smiles": "CCOC(=O)C1CCN(C(c2ccccc2OC)c2c(O)cc(C)n(CCOC)c2=O)CC1", "note": "(centres undefined)", "activity change, negative = inhibition": "inactive: -0.649%"}, {"smiles": "O=C(Nc1ccc(F)cc1)[C@H](Cc1ccccc1)N1Cc2ccccc2C1=O", "activity change, negative = inhibition": "inactive: -0.4%"}, {"smiles": "CC(C)CCOc1ccc(C(=O)Nc2sc3c(c2C#N)CCCCC3)cc1", "activity change, negative = inhibition": "inactive: 5.44%"}, {"smiles": "CCOc1ccccc1NC(=O)C1CCN(S(=O)(=O)c2c(C)noc2/C=C/c2ccc(C)cc2)CC1", "activity change, negative = inhibition": "inactive: -0.875%"}, {"smiles": "COC(=O)c1ccc(Nc2ncnc3c2nc2n3CCCC2)cc1", "activity change, negative = inhibition": "inactive: -0.0494%"}, {"smiles": "CCOc1ccc(C(=O)NCCn2cc(SCC(=O)NCCc3ccc(OC)c(OC)c3)c3ccccc32)cc1", "activity change, negative = inhibition": "inactive: -5.29%"}, {"smiles": "COc1ccccc1OCCn1cc(C(=O)c2cccs2)c2ccccc21", "activity change, negative = inhibition": "inactive: -0.0757%"}, {"smiles": "O=C(c1cc2c(=O)oc3ccccc3c2s1)N1CCN(c2cccc(Cl)c2)CC1", "activity change, negative = inhibition": "inactive: 6.85%"}, {"smiles": "COc1ccc(Cl)cc1NC(=O)Cn1ccn(Cc2ccc(C)cc2)c(=O)c1=O", "activity change, negative = inhibition": "inactive: -2.51%"}, {"smiles": "CCOC(=O)N1CCN(C(=O)CN(c2cccc(Cl)c2C)S(=O)(=O)c2ccc(C)cc2)CC1", "activity change, negative = inhibition": "inactive: -14.9%"}, {"smiles": "O=C(Nc1ccccc1)c1cccc2c(=O)c3c([nH]c12)CCCC3", "activity change, negative = inhibition": "inactive: -0.0417%"}, {"smiles": "Cc1cccc(-n2c(SCC(N)=O)nc3c(oc4ccccc43)c2=O)c1", "activity change, negative = inhibition": "inactive: -0.246%"}, {"smiles": "COc1ccccc1-c1nc(-c2ccc(Br)o2)no1", "activity change, negative = inhibition": "inactive: -0.347%"}, {"smiles": "COCCn1c(SCC(=O)c2cc(C)ccc2C)nc2cc(C(=O)NC3CCCC3)ccc2c1=O", "activity change, negative = inhibition": "inactive: 0%"}, {"smiles": "Cc1cc(C)cc(NC(=O)c2cc(S(=O)(=O)N3CCCCCC3)cn2C)c1", "activity change, negative = inhibition": "inactive: -9.56%"}, {"smiles": "CCN(CC)CCN(C(=O)c1ccco1)c1nc2ccc(Cl)cc2s1", "activity change, negative = inhibition": "inactive: -0.533%"}, {"smiles": "Cn1c(SCc2ccc(F)cc2)nc2ccc(C(=O)NCc3ccc(F)cc3)cc21", "activity change, negative = inhibition": "inactive: 0.427%"}, {"smiles": "Cc1nn(CC(=O)NC2CC2)c(=O)c2cc3ccccc3n12", "activity change, negative = inhibition": "inactive: -1.32%"}, {"smiles": "Cc1ccc(-n2nc3c(N4CCC(C(=O)NC(C)C)CC4)nnc(C)c3c2C)cc1", "activity change, negative = inhibition": "inactive: -8.63%"}, {"smiles": "Cc1ccc(NC(=O)Cn2c(-c3ccc4c(c3)OCO4)cn(-c3ccccc3)c2=O)cc1C", "activity change, negative = inhibition": "inactive: 8.23%"}, {"smiles": "Cc1ccc(C2Nc3ccccc3-n3c(-c4ccccc4)c4c(=O)n(C)c(=O)n(C)c4c32)o1", "note": "(centres undefined)", "activity change, negative = inhibition": "inactive: -20.5%"}, {"smiles": "CCC1CN(C(=O)N2CCC(C(=O)NCc3ccc(OC)cc3OC)CC2)c2cc(C)ccc2O1", "note": "(centres undefined)", "activity change, negative = inhibition": "inactive: -5.82%"}, {"smiles": "Cc1c(Cl)cccc1-n1ncc(C(=O)Nc2ccc3c(c2)OCCO3)c1C1CCN(C(=O)OC(C)(C)C)CC1", "activity change, negative = inhibition": "inactive: -6.99%"}, {"smiles": "CCOc1ccc(-c2nc(SC(C(C)=O)C(=O)N(C)C)c3c(=O)n(C)c(=O)n(C)c3n2)cc1", "note": "(centres undefined)", "activity change, negative = inhibition": "inactive: 4.22%"}, {"smiles": "CCc1ccc(NC(=O)c2ccc3c(c2)nnn3CC)cc1", "activity change, negative = inhibition": "inactive: 1.92%"}, {"smiles": "Cc1ccccc1OCC(=O)OCc1cc(=O)n2ccsc2n1", "activity change, negative = inhibition": "inactive: -6.87%"}, {"smiles": "Cc1ccc2cc3cc(C(=O)Nc4ccc(F)cc4Cl)oc3nc2c1", "activity change, negative = inhibition": "inactive: -10.3%"}, {"smiles": "CCN(CC)S(=O)(=O)c1ccc2c(c1)N(CC(=O)N1CCN(c3cccc(C(F)(F)F)c3)CC1)C(=O)CO2", "activity change, negative = inhibition": "inactive: -8.9%"}, {"smiles": "Cc1ccc(Cl)cc1N1CCN(CCNC(=O)Nc2ccc(Cl)cc2)CC1", "activity change, negative = inhibition": "inactive: -29%"}, {"smiles": "COc1ccc(N2CCN(C(=O)c3nc(-c4ccc(Cl)cc4)n4c3CCCCC4)CC2)cc1", "activity change, negative = inhibition": "inactive: -16.2%"}, {"smiles": "CCOc1ccc(CNC(=O)c2ccc(CS(=O)c3ccccc3)o2)cc1", "note": "(centres undefined)", "activity change, negative = inhibition": "inactive: 3.66%"}, {"smiles": "O=C(C1CCN(S(=O)(=O)c2cccc3nonc23)CC1)N1CCN(c2ccccc2)CC1", "activity change, negative = inhibition": "inactive: 1.64%"}, {"smiles": "COc1ccc(NC(=O)c2nnn(Cc3ccc(Br)cc3F)c2N)c(OC)c1", "activity change, negative = inhibition": "inactive: -19.8%"}, {"smiles": "CS(=O)(=O)N1CCc2cc(C(=O)N3CCN(c4ccc(F)cc4)CC3)ccc21", "activity change, negative = inhibition": "inactive: -4.28%"}, {"smiles": "Cc1ccc(N2CC(NC(=O)c3ccc4c(c3)OCO4)CC2=O)cc1", "note": "(centres undefined)", "activity change, negative = inhibition": "inactive: -0.185%"}, {"smiles": "Cc1ccccc1NC(=O)Cn1nc(-c2ccc(F)cc2)c2cnc3ccccc3c21", "activity change, negative = inhibition": "inactive: 4.52%"}, {"smiles": "CCOc1ccc(-c2c(C)nn3c(C)c(C(=O)NCc4ccc(C)o4)cnc23)cc1OCC", "activity change, negative = inhibition": "inactive: 0.395%"}, {"smiles": "Cc1cc(N2CCC(C)CC2)nc2ccc(NC(=O)/C=C/c3cccc(Cl)c3)cc12", "activity change, negative = inhibition": "inactive: -20.2%"}, {"smiles": "CCc1ccccc1NC(=O)CSc1nnc(CC)c(CC)n1", "activity change, negative = inhibition": "inactive: -13.8%"}, {"smiles": "CSc1ccc(CNC(=O)c2cc3c(=O)n(Cc4ccco4)ccc3nc2C)cc1", "activity change, negative = inhibition": "inactive: 0.134%"}]}]}
